Assay results as given in ChEMBL document CHEMBL1629563, “Pharmacokinetic and safety evaluation of BILR 355, a second-generation nonnucleoside reverse transcriptase inhibitor, in healthy volunteers” (Antimicrob Agents Chemother, 2008).

Substrate: CCN1c2ncc(CCOc3cc[n+]([O-])c4ccccc34)cc2C(=O)N(C)c2cccnc21
Assay: Activity of human CYP3A4
Format: ADME

B1: Cytochrome P450 3A4 (Homo sapiens) (protein)
chain: MALIPDLAMETWLLLAVSLVLLYLYGTHSHGLFKKLGIPGPTPLPFLGNILSYHKGFCMFDMECHKKYGKVWGFYDGQQPVLAITDPDMIKTVLVKECYSVFTNRRPFGPVGFMKSAISIAEDEEWKRLRSLLSPTFTSGKLKEMVPIIAQYGDVLVRNLRREAETGKPVTLKDVFGAYSMDVITSTSFGVNIDSLNNPQDPFVENTKKLLRFDFLDPFFLSITVFPFLIPILEVLNICVFPREVTNFLRKSVKRMKESRLEDTQKHRVDFLQLMIDSQNSKETESHKALSDLELVAQSIIFIFAGYETTSSVLSFIMYELATHPDVQQKLQEEIDAVLPNKAPPTYDTVLQMEYLDMVVNETLRLFPIAMRLERVCKKDVEINGMFIPKGVVVMIPSYALHRDPKYWTEPEKFLPERFSKKNKDNIDPYIYTPFGSGPRNCIGMRFALMNMKLALIRVLQNFSFKPCKETQIPLKLSLGGLLQPEKPVVLKVESRDGTVSGA
B1 showed a Km of 0.854 µM.
